Tests used:
[1] = test system: human mantle cell lymphoma cell line JeKo-1; experiment: Cancer growth suppression efficacy of anti-ROR1 IgG antibody in mouse tumor xenograft model; format: in vivo; conditions: Day 16; 10 mg/kg peritoneally twice a week, 5 administrations; JeKo-1 xenograft in SCID mice
Description: Human cancer xenograft mice were prepared by transplanting 1×10^7 cells/head of the ROR1-expressing human mantle cell lymphoma cell line JeKo-1 to severe combined immunodeficiency mice (SCID). After xenograft, when tumor size reached 170 mm^3 on average (Day 1), the mice were divided into groups, and 5 types of anti-ROR-1 antibody were peritoneally injected into the mice using a 1 mL syringe twice a week at 10 mg/kg for a total of 5 administrations (Days 1, 4, 7, 10 and 14). The negative control group was peritoneally administered 10 mg/kg each of human IgG1 (InVivoPlus human IgG1 isotype control, BioXCell, BP0297) having a structure similar to that of ROR-1 antibody twice a week for a total of 5 administrations. The size of the tumors grafted to the mice and the weight of the mice were measured immediately before initial administration (Day 1), immediately before administration on each administration date thereafter, and at two days after final administration (Day 16).

[2] = test system: ROR1 non-expressing cell line U266; experiment: Induction of auto-active cell death (Annexin V / PI, FACS) in U266; format: cell-based; conditions: cross-linked antibody
Description: (§1) To this end, the ROR1 over-expressing cell line JeKo-1 was centrifuged to remove the serum-containing medium. After washing once with PBS, 5×10^6 cells were seeded in each well of a 6-well plate using serum-free RPMI1640 medium. 100 ? /mL of the anti-ROR1 antibody according to the present invention and 300 ? /ml of anti-human Fc antibody (Thermo Fisher, 31125) were placed at a 1:1 ratio in an equivalent tube, an reacted for 10 minutes at room temperature so that the anti-ROR1 antibody was cross-linked by the anti-human Fc antibody. 150 ? each of the mixtures was placed in the wells containing 15 ml medium so that the final amount of antibody treated was 10 ? /mL for ROR1 antibody, and 30 ? /mL for anti-human Fc antibody, then reacted by culturing for 24 hours at 5% CO2 and 37° C.
(§2) Next, to confirm whether or not whether or not the ROR1 antibody alone and the cross-linked anti-ROR1 antibody had the capacity to induce auto-active cell death, the cells of each well were collected and washed once with PBS. Thereafter, each group was reacted with the auto-active cell death marker Annexin V and the cell death marker PI, and the degree to which the groups were dyed was observed through FACS analysis.
In particular, in terms of dyeing by the auto-active cell death marker Annexin V, there was a 23% increase for the C2E3 clone and a 10% increase for the AB4 clone over the control. […]

[3] = target: T1, recombinant human ROR1-Fc (Homo sapiens, UniProt Q01973); experiment: Monoclonal phage antibody (scFv) screening ELISA on ROR1-Fc; format: binding; conditions: monoclonal phage scFv supernatant
T1 construct: made in house; host or cells: HEK 293E
T1 sequence (Q01973 30-406): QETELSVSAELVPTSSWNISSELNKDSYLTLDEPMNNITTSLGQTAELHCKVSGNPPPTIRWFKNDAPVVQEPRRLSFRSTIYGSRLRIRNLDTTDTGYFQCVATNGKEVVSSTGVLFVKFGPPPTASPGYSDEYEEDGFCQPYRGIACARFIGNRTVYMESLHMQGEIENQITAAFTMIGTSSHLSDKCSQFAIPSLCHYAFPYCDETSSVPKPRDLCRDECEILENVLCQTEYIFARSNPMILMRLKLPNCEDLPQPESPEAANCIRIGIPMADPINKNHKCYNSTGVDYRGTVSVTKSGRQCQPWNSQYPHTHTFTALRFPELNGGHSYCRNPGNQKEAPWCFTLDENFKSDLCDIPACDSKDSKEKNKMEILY
Description: Thereafter, the ELISA method was used as follows to select clones expressing monoclonal soluble scFv binding to ROR1-Fc antigen (Steinberger Rader and Barbas III 2000 Phage display vectors In: Phage Display Laboratory Manual 1sted Cold Spring Harbor Laboratory Press NY USA pp 119-1112). Specifically, 100 ng per well of recombinant human ROR1-Fc prepared in Embodiment 1-1 or FBMA-Fc was placed in a 96-well microtiter plate (Nunc-Immuno Plate, NUNC, USA), which was coated overnight at 4° C. BCMA-Fc is the protein used as a negative control, a recombinant protein where the extracellular domain of human BCMA protein is linked to human Fc. 200 μL each of 3% BSA was placed in each well, and blocked for 2 hours at 37° C.
The monoclonal phage supernatant was prepared by mixing 1:1 with 3% BSA, and 100 μL each of this mixture was loaded into the wells and reacted for 2 hours at 37° C. After washing 5 times with 300 μL PBST, anti-HA HRP binding antibody was added, reacted for 1 hour at 37° C., then washed 5 times with PBST. 100 μL TMB (Tetramethylbenzidine, Sigma, T0440) was added for color development, and then 50 μL 1N H2SO4 was added to stop the reaction. Absorbance was measured at 450 nm and 650 nm, and clones where the absorbance at 450 nm and 650 nm was 10 or higher when coated with 1 ? /mL ROR1 were screened (FIG. 1)

[4] = test system: ROR1 over-expressing cell line JeKo-1; experiment: Induction of auto-active cell death (Annexin V / PI, FACS) in JeKo-1; format: cell-based, human
Description: as §1, §2

[5] = target: T2, cell surface-expressed ROR1 (JeKo-1 cell line) (Homo sapiens, UniProt Q01973); experiment: Monoclonal phage antibody (scFv) flow cytometry on JeKo-1; format: binding; conditions: monoclonal scFv supernatant
T2 construct: reacted with a cell line (JeKo-1) overexpressing ROR1; endogenous in cells; host or cells: JeKo-1
T2 sequence (Q01973 30-937): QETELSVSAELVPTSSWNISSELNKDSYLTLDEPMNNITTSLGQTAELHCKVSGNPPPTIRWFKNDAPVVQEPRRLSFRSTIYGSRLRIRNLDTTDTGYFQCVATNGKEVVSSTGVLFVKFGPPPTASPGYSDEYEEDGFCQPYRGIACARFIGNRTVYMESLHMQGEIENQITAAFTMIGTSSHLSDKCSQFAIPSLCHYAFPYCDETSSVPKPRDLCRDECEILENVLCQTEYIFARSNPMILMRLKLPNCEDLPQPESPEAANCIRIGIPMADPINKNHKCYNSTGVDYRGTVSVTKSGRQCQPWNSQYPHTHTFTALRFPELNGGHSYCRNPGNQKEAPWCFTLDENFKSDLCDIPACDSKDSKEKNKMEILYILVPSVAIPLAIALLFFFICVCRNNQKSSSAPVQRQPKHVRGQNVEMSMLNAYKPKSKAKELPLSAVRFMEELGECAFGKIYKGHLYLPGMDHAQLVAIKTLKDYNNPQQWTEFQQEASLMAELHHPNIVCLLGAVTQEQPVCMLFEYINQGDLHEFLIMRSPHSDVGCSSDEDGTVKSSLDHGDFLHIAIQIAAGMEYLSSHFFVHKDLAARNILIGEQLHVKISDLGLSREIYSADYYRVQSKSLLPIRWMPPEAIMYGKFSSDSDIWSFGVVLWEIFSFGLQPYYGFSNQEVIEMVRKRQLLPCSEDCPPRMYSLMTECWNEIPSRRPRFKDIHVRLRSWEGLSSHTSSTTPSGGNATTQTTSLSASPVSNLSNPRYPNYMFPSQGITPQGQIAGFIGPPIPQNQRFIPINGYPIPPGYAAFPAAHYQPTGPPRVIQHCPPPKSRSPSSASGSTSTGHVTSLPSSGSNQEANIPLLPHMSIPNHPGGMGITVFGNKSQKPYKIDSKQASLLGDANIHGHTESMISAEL
Description: Next, flow cytometry was used to screen clones binding to cell lines expressing ROR1. Specifically, 100 ? of the monoclonal scFv supernatant was reacted with a cell line (JeKo-1) overexpressing ROR1, then washed two times with PBS. After reacting with anti-HA-FITC antibody (Sigma, H7411) at 4° C. for 30 minutes, and washing twice with PBS then suspending in 200 ? PBS, a FACSCalibur flow cytometer (BD Bioscience) was used to screen clones binding to the JeKo-1 cell line (FIG. 2)

binding to recombinant human ROR1 protein [3]: binding | binding to cell lines expressing ROR1 [5]: binding
B1: C2E3: anti-ROR1 antibody clone, VH SEQ ID NO 48, VL SEQ ID NO 56; IgG chains SEQ ID NOs 64 and 72 (antibody)
heavy: EVQLLESGGGLVQPGGSLRLSCAASGFTFSNYAMSWVRQAPGKGLEWVSSISHNSGSTYYADSVKGRFTISRDNSKNTLYLQMNSLRAEDTAVYYCAKFISARKSLGRSYSNGMDVWGQGTLVTVSS[human IgG1 constant region not printed]
light: QSVLTQPPSASGTPGQRVTISCTGSSSNIGSNDVTWYQQLPGTAPKLLIYADSKRPSGVPDRFSGSKSGTSASLAISGLRSEDEADYYCGTWDYSLSGYVFGGGTKLTVLGQPKAAPSVTLFPPSSEELQANKATLVCLISDFYPGAVTVAWKADSSPVKAGVETTTPSKQSNNKYAASSYLSLTPEQWKSHRSYSCQVTHEGSTVEKTVAPAECS
% tumor growth inhibition (% TGI) compared to the human IgG1 antibody (HuIgG1) negative control [1]: 360% | induction of auto-active cell death (dyeing by Annexin V and PI) [2]: not able to induce auto-active cell death | induction of auto-active cell death (dyeing by Annexin V and PI) ([4]; antibody cross-linked (multimerized) by anti-human Fc antibody): increased over the control group | increase in dyeing by the auto-active cell death marker Annexin V over the control ([4]; antibody cross-linked by anti-human Fc antibody, 24 hours): 23%

— US11707533B2, “Antibody-drug conjugate comprising antibody against human ROR1 and use for the same” (LegoChem Biosciences, Inc., priority 2019, dated 2023)
